B1: PR005189 (bispecific antibody)
chain 1: QVQLVESGGGVVQPGRSLRLSCAASGFTFRSFGMHWVRQAPGKGLEWVAVISYDASNEYYADSVKGRFIISRDNSKDTLYLQMNSLRAGDTAVYYCAKGGGLRWYFAYWGQGTLVTVSSASTKGPSVFPLAPSSKSTSGGTAALGCLVKDYFPEPVTVSWNSGALTSGVHTFPAVLQSSGLYSLSSVVTVPSSSLGTQTYICNVNHKPSNTKVDKKVEPKSC
chain 2: EIVMTQSPATLSVSPGERATLSCRASQSISSNLGWYQQKPGQAPRLLIYGASTRATGIPARFSGSGSGTEFTLTISSLQSEDFAVYYCQQYQSWPPLTFGGGTKVEIKRTVAAPSVFIFPPSDEQLKSGTASVVCLLNNFYPREAKVQWKVDNALQSGNSQESVTEQDSKDSTYSLSSTLTLSKADYEKHKVYACEVTHQGLSSPVTKSFNRGECEVQLVESGGGVVQPGGSLRLSCAASGFTFSNYAMTWVRQAPEKGLEWVSSISGSGVSTYYADSVKGRFTISRDNSKNTLYLQMTRLTAEDTAVYFCAKEGSSETDDHYYNVDVWGQGTTVTVSS[letters of human IgG1 Fc with changes not shown]
B2: PR007165 (bispecific antibody)
light: EIVMTQSPATLSVSPGERATLSCRASQSISSNLGWYQQKPGQAPRLLIYGASTRATGIPARFSGSGSGTEFTLTISSLQSEDFAVYYCQQYQSWPPLTFGGGTKVEIKRTVAAPSVFIFPPSDEQLKSGTASVVCLLNNFYPREAKVQWKVDNALQSGNSQESVTEQDSKDSTYSLSSTLTLSKADYEKHKVYACEVTHQGLSSPVTKSFNRGEC
heavy: QVQLVESGGGVVQPGRSLRLSCAASGFTFRSFGMHWVRQAPGKGLEWVAVISYDASNEYYADSVKGRFIISRDNSKDTLYLQMNSLRAGDTAVYYCAKGGGLRWYFAYWGQGTLVTVSSASTKGPSVFPLAPSSKSTSGGTAALGCLVKDYFPEPVTVSWNSGALTSGVHTFPAVLQSSGLYSLSSVVTVPSSSLGTQTYICNVNHKPSNTKVDKKVEPKSCEVQLVESGGGVVQPGGSLRLSCAASGFTFSNYAMTWVRQAPEKGLEWVSSISGSGVSTYYADSVKGRFTISRDNSKNTLYLQMTRLTAEDTAVYFCAKEGSSETDDHYYNVDVWGQGTTVTVSS[letters of human IgG1 Fc with changes not shown]
B3: PR005649 (bispecific antibody)
chain 1: B1 chain 1
chain 2: EIVMTQSPATLSVSPGERATLSCRASQSISSNLGWYQQKPGQAPRLLIYGASTRATGIPARFSGSGSGTEFTLTISSLQSEDFAVYYCQQYQSWPPLTFGGGTKVEIKRTVAAPSVFIFPPSDEQLKSGTASVVCLLNNFYPREAKVQWKVDNALQSGNSQESVTEQDSKDSTYSLSSTLTLSKADYEKHKVYACEVTHQGLSSPVTKSFNRGECEPKSSDKTHTPPPPPEVQLVESGGGVVQPGGSLRLSCAASGFTFSNYAMTWVRQAPEKGLEWVSSISGSGVSTYYADSVKGRFTISRDNSKNTLYLQMTRLTAEDTAVYFCAKEGSSETDDHYYNVDVWGQGTTVTVSSERKCCVECPPCPAPEAAGGPSVFLFPPKPKDTLMISRTPEVTCVVVDVSHEDPEVKFNWYVDGVEVHNAKTKPREEQYNSTYRVVSVLTVLHQDWLNGKEYKCKVSNKALPAPIEKTISKAKGQPREPQVYTLPPSREEMTKNQVSLTCLVKGFYPSDIAVEWESNGQPENNYKTTPPVLDSDGSFFLYSKLTVDKSRWQQGNVFSCSVMHEALHNHYTQKSLSLSPGK

The binders below were run against human 4-1BB (human, UniProt Q07011 24-255) (assay: FACS).
UniProt Q07011, sequence (Q07011 24-255): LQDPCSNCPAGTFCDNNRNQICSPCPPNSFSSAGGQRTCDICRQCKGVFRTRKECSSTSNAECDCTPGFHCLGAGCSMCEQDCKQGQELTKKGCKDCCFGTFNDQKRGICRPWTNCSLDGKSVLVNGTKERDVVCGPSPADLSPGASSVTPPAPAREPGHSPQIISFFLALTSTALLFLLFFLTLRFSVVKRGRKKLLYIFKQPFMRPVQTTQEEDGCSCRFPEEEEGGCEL

Binder | EC50
B1 | 4.25 nM
B2 | 4 nM
B3 | 0.533 nM

Source: US20230303698A1 (published 2023)
